# Measured values from ChEMBL document CHEMBL4888484, “Replenishing the malaria drug discovery pipeline: Screening and hit evaluation of the MMV Hit Generation Library 1 (HGL1) against asexual blood stage Plasmodium falciparum ,using a nano luciferase reporter read-out” (2022).
# Among all 150,000 compounds or so, about 540 (0.36%) showed an effect of 50% or more. This is one part of the list.
# Test system: Plasmodium falciparum
# Assay: Primary screen in NF54 nanoGlo assay, in single point, at 2uM, 72h; a lower Z score goes with more inhibition
# Type: functional, Erythrocyte
# Details: timepoint 72 hour
Compound,% Inhibition [%],Z score
O=C(CCN1CCCO1)N1CCC[C@H](Nc2cccc(F)c2)C1,9,-1.2
CC(C)C(CNC1CCOC1)ONC(=O)OC(C)(C)C (stereo not given),-17,2.24
C/C=C/CC(=O)N1CCc2c(c(C(=O)O)nn2CCCc2ccccc2)C1,-7,1.43
CCc1cc(C(=O)N2CCCC[C@@H]2C)c2c(C)noc2n1,2,-0.28
CC(C)CN(CC(C)C)C(=O)NCc1cccnc1,3,-0.53
Cn1nnc2c(N3CCN(S(=O)(=O)Cc4ccccc4)CC3)ncnc21,-6,0.93
CN(C)S(=O)(=O)c1ccc(N2CCCC2)c(C(=O)N2CCN(Cc3ccc(Cl)s3)CC2)c1,0,-0.01
Cc1nc(CN(CCO)c2cccc(F)c2)no1,-2,0.3
CC(NC(=O)C1CCn2ccnc2C1)C(O)Cc1ccccc1 (stereo not given),-16,1.44
Cc1cnc(-c2cccc(NC(=O)c3c(C)noc3C)c2)o1,-6,1.21
CCc1noc(C(C)NC2CCCCCC2C(N)=O)n1 (stereo not given),-6,0.68
CCn1cc(NC(=O)NCc2nc(Cc3cccs3)no2)nn1,-3,0.6
Cn1nccc1S(=O)(=O)N1CCC[C@H](c2c[nH]c3ncccc23)C1,3,-0.3
COCCN1CC(=O)N[C@H]2CN(Cc3nc(C(C)C)no3)C[C@@H]2OCc2cccc(c2)Oc2cc(ccc2OC)CCC1=O,6,-1.1
O=C(C1CCC1)N1CC[C@@]2(CCCN(CC3CCCCC3)C2=O)C1,1,-0.12
O=C(c1c(F)cccc1F)N1CCN(c2nc3nccc(-c4cccc(C(F)(F)F)c4)n3n2)CC1,-1,0.14
Cc1cc(NC(=O)N(Cc2ccccc2)Cc2scnc2C)n(C(C)C)n1,-4,0.57
Cc1nc(N2CCCC2)nc(C)c1NC(=O)c1cccnc1,-3,0.45
Cc1ccn(-c2cc(NCCNC(=O)c3cccs3)ncn2)n1,0,-0.06
COc1ccc(OCC(=O)Nc2cc(C)nn2-c2nc3c(cnn3-c3cccc(C)c3C)c(=O)[nH]2)cc1,-6,1.15
Cc1ccc(-c2nn(-c3cccc(F)c3)cc2CNCCc2ccncc2)o1,-5,0.82
CCc1nc(C#N)c(NCCc2ccc(OC)c(OC)c2)o1,-5,0.66

Compound,% Inhibition [%],Z score
CCc1nnc(-c2[nH]c(C)c(S(=O)(=O)Nc3cccc(Cl)c3)c2C)o1,-5,0.66
COCCN1C[C@@H](Cc2ccc3c(=O)[nH]ccc3c2)CC1=O,-21,2.65
CCN1CCCC[C@@H]1CNCc1ccnn1-c1ccccc1,-5,0.8
C=CCNC(=O)c1cn2c3c(cc(Br)cc3c1=O)CC2,-7,1.32
O=C(Nc1cccc(C#Cc2ccccn2)c1)c1ccco1,-6,0.85
Cc1cccc(C)c1C(=O)NCc1nc(CN2CCCCC2)no1,-9,1.23
Cc1nc(N2CCc3[nH]nc(C(=O)N(C)C)c3C2)c2sccc2n1,2,-0.36
COc1nc(NC(=O)c2cc(C)cc(F)c2)n[nH]1,-20,1.78
COc1ccc(-c2cc(C(=O)NCCN3CCN(c4ccccc4)CC3)c3cc(C(C)C)ccc3n2)cc1,3,-0.39
Cc1ncccc1N[C@@H](C)CS(C)(=O)=O,-14,1.93
CC(C)c1csc(CCNC(=O)CCN2C[C@@H](C)O[C@@H](C)C2)n1,-5,0.93
CC(C)C[C@H](NC(=O)NCCc1ncnn1C)C(N)=O,4,-0.69
N#Cc1cncc(NCC2CCCCCC2)n1,-16,1.97
O=C(O)[C@@H](c1ccccc1F)N1CCC(c2nc(-c3ccccc3)no2)CC1,-19,2.05
C[C@@H](C(=O)Nc1cccc(-c2nnn(C)n2)c1)n1cnc2ccccc2c1=O,-10,1.29
Cc1cc2c(c(=O)n(-c3ccccc3)c(=O)n2CC(=O)Nc2ccc(F)c(Cl)c2)n1C,-22,2.01
Cc1cc(N2CCS(=O)(=O)[C@@H](C)C2)c2cccc(F)c2n1,10,-1.14
O=C(Nc1csnc1-c1ccccc1)c1ccc(F)cc1Cl,-6,0.6
O=c1c2ccccc2nnn1CCOc1cccc(Cl)c1,-6,1.11
O=S(=O)(c1cncc(F)c1)N1CCC(F)(c2ccc(Cl)cc2)CC1,-7,0.93
COc1cccc2c1OC[C@@H](C(=O)N1CCC(Nc3ccccn3)CC1)C2,-5,0.59
Cc1ccc(Cl)cc1NC(=O)N1CC[C@H](n2cnnc2C2CC2)C1,-13,1.95

Compound,% Inhibition [%],Z score
O=C(Nc1nc2c(s1)CCCC2)[C@@H]1CCCc2ccccc21,-6,0.79
CCOc1cc(CNCCCn2ccnc2)ccc1OCc1ccccc1,46,-2.57
CCOc1ccc(NC(=O)Cn2cnc3nc(N(CC)CC)sc3c2=O)cc1,-3,0.57
COc1cccc(C(=O)N2CC(CN3CCN(c4ccccc4)CC3)C(c3cccc(F)c3)C2)c1 (stereo not given),-2,0.32
COc1ccccc1C1CCC(C)CN1Cc1nnc(C(C)C)o1 (stereo not given),-5,0.51
CC1CC(=O)CCC1c1nc(-c2ccncc2)no1 (stereo not given),-3,0.47
C=CCN1CCN(C(=O)C(C)Oc2ccc3c(c2)C(c2ccc(F)cc2)N(C(=O)CC(C)C)CC3)CC1 (stereo not given),-9,1.18
O=C(c1cnccn1)N1CCC[C@H]1c1ccc(Cl)c(Cl)c1,-17,2.55
O=C(NCc1ccc(-n2cncn2)nc1)c1ccc(O)nc1,-1,0.21
COc1cccc(CN2CCC(c3ncc(C)n3CCO)CC2)n1,18,-3.02
FC(F)Oc1ccc(-c2ccc(NC[C@H]3CCCO3)nc2)cn1,-7,1.35
CN(Cc1ccc(-c2cc[nH]n2)s1)CC1CCOCC1,-8,0.88
C(#CCN1CCOCC1)COc1ccc2ccccc2c1,-17,1.83
Cc1csc(CNC2CCN(Cc3ccccc3)C(C)C2)n1 (stereo not given),-5,0.74
Cc1cc(C)c(S(=O)(=O)Nc2ccc(N3CCNCC3)c(C(=O)NCc3ccccc3)c2)c(C)c1,-15,1.82
O=C(N[C@@H]1COCC[C@@H]1OCc1ccccc1)c1ncoc1C1CC1,-1,0.15
Cc1cc(N2CCCO[C@@H](CF)C2)ccn1,-8,0.97
O=C(C1CC2CCC1C2)N1CCCC1c1ccncc1 (stereo not given),-5,0.72
COc1cccc2c1nc(NC(=O)CN1CCN(C)C(=O)C1)n2C,-10,1.37
CCC(COc1ccccc1)NC(=O)C1CC12CCOCC2 (stereo not given),-5,0.61
O=C(c1ccncc1)N1CCCn2nc(-c3cccs3)cc2C1,-21,3.92
CCOC(=O)Nc1cc(C2CC2)nn1-c1nc2c(c(=O)[nH]1)CCCC2,4,-0.55

Compound,% Inhibition [%],Z score
Cc1noc(C)c1NC(=O)N[C@@H](C)c1ccc(-n2cccn2)cc1,-9,1.85
Cc1cccc(C(=O)N2CCc3[nH]nc(C(=O)N(C)C)c3C2)c1,15,-2.39
CN1CCN(CCCOc2ccccc2-c2ncc[nH]2)CC1,-6,0.94
C[C@@H](CC1CC1)Nc1cccc(N2CCS(=O)(=O)CC2)c1,-5,0.63
Cc1ccc(C2CCN(C(=O)[C@@]3(C)CCc4ccccc4C3)CC2)cn1,-8,0.88
CCn1cc(CC(=O)N2CC(=O)Nc3cc(F)c(F)cc32)cn1,2,-0.27
COc1ccc(CC/N=C2/CCc3ccccc3N2)cc1OC,6,-1.21
CCCN1C=NS(=O)(=O)c2cc(C(=O)Nc3ccc(C)cc3C)ccc21,-5,0.84
Cc1cccc(C)c1OCC(=O)c1ccc2c(c1)N([C@@H](C)C(=O)N1CCOCC1)C(=O)CO2,-17,1.51
CCc1ncnc(Oc2cccnc2)c1F,-11,1.56
O=C(CCc1nc(C2CC2)no1)NC1(c2ccccc2F)CC1,-13,1.82
C[C@@H](CCNC(=O)C1(N2CCCCC2)CCCCC1)n1ccnc1,1,-0.28
C[C@@H](c1cccc(C(F)(F)F)c1)N(CC(=O)NC1(C#N)CCCC1)C1CC1,-6,0.62
O=C(Nc1nc2ccccc2s1)C1CCN(c2ccc(-c3ccccc3)nn2)CC1,13,-1.45
COc1nccnc1N1CC[C@H](N(C)C(=O)Cc2cccs2)C1,-6,0.86
O=C([C@H]1C[C@@H]1c1ccc(OC(F)F)cc1)N1C[C@H](O)C[C@H](O)C1,-18,1.92
C[C@@H](c1ccccn1)N(C)Cc1cn(C)nn1,0,0.01
CS(=O)(=O)N[C@H]1[C@H](Nc2ccc(C#N)cn2)[C@@H]2CCO[C@@H]21,-12,1.43
CC[C@@H](c1ccccn1)N(C)C(=O)c1oc(C)nc1C,-1,0.09
